Source: PMC6576747
These are yes or no findings as the source states them, for the method shown. Some results given as binding are weak or reduced against the parent protein; the word gives no strength. Tags and fused reporters may be left off the sequences shown. Values belong to the binder of their own block, whether it stands above or below them.

Columns and labels:
[1] = biological target: T1, Swi6 (yeast two-hybrid fusion) (S. pombe) (UniProt P40381); assay: two-hybrid; Matchmaker GAL4 Two-Hybrid System 3, host AH109, HIS3 reporter, serial dilution on -TLH; halves of Epe1 against Swi6; which was bait is not told
T1 sequence: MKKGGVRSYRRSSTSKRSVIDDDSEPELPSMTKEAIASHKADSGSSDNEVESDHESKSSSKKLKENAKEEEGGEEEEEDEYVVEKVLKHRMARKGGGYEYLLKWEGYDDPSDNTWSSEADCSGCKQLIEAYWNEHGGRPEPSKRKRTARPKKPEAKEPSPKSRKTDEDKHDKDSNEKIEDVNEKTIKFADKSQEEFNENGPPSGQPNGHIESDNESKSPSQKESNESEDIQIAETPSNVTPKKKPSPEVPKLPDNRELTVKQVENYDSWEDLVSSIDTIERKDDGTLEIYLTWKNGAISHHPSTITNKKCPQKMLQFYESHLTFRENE

[2] = biological target: T1, Swi6 (yeast two-hybrid fusion) (S. pombe); assay: two-hybrid; Matchmaker GAL4 Two-Hybrid System 3, host AH109, HIS3 reporter, serial dilution on -TLH, 15 mM 3-AT; both orientations (bait-prey exchange)

binding [1]: binds
B1: C-terminal half of Epe1 (487–948 amino acids region) (domain or fragment, UniProt O94603 487-948)
chain: DIYNEPVKISKNNGYNSAYTMVPPDLDEICVDFVQKFGAWITYHHRRSAKHPSCNCFSHLQTKLIDSGPKPANNSYQHQSNFIGVVISTNHNIIKKCQESQIQTGKNNCSFQLVKKRIKSTKKAPSWRSIIKAFKKRENTRCNFLSSLHATTFREDIVVRPKIKSFVLEQLIFQALFSFAINWTPSFFLNHSNFENIALSKETFNFGGEANCENTDTTLFTTWGDQGFRPSDSICYNDFNLLETANSDAEASIHELELQPLNAVNEREVDISQTDMTPSTALDTRVDTRVDSLPEFSNLILSPSSNDDSFQLDDLLSPSSSNLKQQIQKVVPQNSLEFSVGEKEKKAAEYSLLHTFSYKRLSMENEKPDTTKVPLKYNIQHEEMKAYRRKNDLEYIDQHFASSKSGISNGRNNNKEVNLTKAENVGIKKRRIMKNENNIYDFEDHSPVREKWGHRLRSRGAS

binding [1]: no binding
B2: N-terminal half of Epe1 (1–486) (domain or fragment, UniProt O94603 1-486)
chain: MDSWLEYDDIINQDIDIPSNDLSGSGTLCVGVHSSLLENSLNSIDSFISSKEEISWCGNQSTPIATKSHLSCINPQYVNPFDTSPVSVDTEFQDTYLLDAPSFAQPHFSERQSVDKTRSRCLSRNRRRKRHPNLHKNHQRLLGMSFPQDGFRRMPAESVNFSYFRDTGFNEPTIFPSSDTQNTRQLNLSKIATLIGYDCPLALVDVVTQKQIPNKMDMESWVKYMSLEPSKRGRIYDVLSLEVSTTKLAYYVRKPNIVRDLDLVNTVWPPGSFALGEYPHVDTYCLMSAENSYTEFHIEFGGSSAYYNILDGCKIFYLIPGTSKNWEAYTAWLTSSNDSDKKFLPNMVDVCYCVEVHSQQTILVPSGWIYAVVTPCDTISIAGNFLTFLHIYPQLSIYNLELQLGIEKEYQYPYFESIMWYTAIHFYLAFPDNSSRDGIDDIIAEYETGRLFDINAFTEQELDGFEELLNYLYIRAQILRDCDIII

binding [2]: binds
B3: Epe1 (yeast two-hybrid fusion) (protein, UniProt O94603 1-948)
chain: MDSWLEYDDIINQDIDIPSNDLSGSGTLCVGVHSSLLENSLNSIDSFISSKEEISWCGNQSTPIATKSHLSCINPQYVNPFDTSPVSVDTEFQDTYLLDAPSFAQPHFSERQSVDKTRSRCLSRNRRRKRHPNLHKNHQRLLGMSFPQDGFRRMPAESVNFSYFRDTGFNEPTIFPSSDTQNTRQLNLSKIATLIGYDCPLALVDVVTQKQIPNKMDMESWVKYMSLEPSKRGRIYDVLSLEVSTTKLAYYVRKPNIVRDLDLVNTVWPPGSFALGEYPHVDTYCLMSAENSYTEFHIEFGGSSAYYNILDGCKIFYLIPGTSKNWEAYTAWLTSSNDSDKKFLPNMVDVCYCVEVHSQQTILVPSGWIYAVVTPCDTISIAGNFLTFLHIYPQLSIYNLELQLGIEKEYQYPYFESIMWYTAIHFYLAFPDNSSRDGIDDIIAEYETGRLFDINAFTEQELDGFEELLNYLYIRAQILRDCDIIIDIYNEPVKISKNNGYNSAYTMVPPDLDEICVDFVQKFGAWITYHHRRSAKHPSCNCFSHLQTKLIDSGPKPANNSYQHQSNFIGVVISTNHNIIKKCQESQIQTGKNNCSFQLVKKRIKSTKKAPSWRSIIKAFKKRENTRCNFLSSLHATTFREDIVVRPKIKSFVLEQLIFQALFSFAINWTPSFFLNHSNFENIALSKETFNFGGEANCENTDTTLFTTWGDQGFRPSDSICYNDFNLLETANSDAEASIHELELQPLNAVNEREVDISQTDMTPSTALDTRVDTRVDSLPEFSNLILSPSSNDDSFQLDDLLSPSSSNLKQQIQKVVPQNSLEFSVGEKEKKAAEYSLLHTFSYKRLSMENEKPDTTKVPLKYNIQHEEMKAYRRKNDLEYIDQHFASSKSGISNGRNNNKEVNLTKAENVGIKKRRIMKNENNIYDFEDHSPVREKWGHRLRSRGAS
